Here are results for 1 molecule from patent EP4683654A1 (dated 2026).

The target in this assay is T1, human CD47 (cluster of differentiation 47) (human, UniProt Q08722).
T1 construct: whole, on cells; CD47 as carried by Raji, SK-OV-3 (SKOV3) and HT-1080 cells and by human primary platelets and T cells; the cell is named under assay; also called IAP; integrin-associated protein
Put plainly: FACS on Raji cells, pH 7.3 and pH 6.0.

B1: variant SIRPαV1 IgV-IgG1 Fc fusion protein with the mutation of K53H (Fc fusion)
chain: EEELQVIQPDKSVLVAAGETATLRCTATSLIPVGPIQWFRGAGPGRELIYNQHEGHFPRVTTVSDLTKRNNMDFSIRIGNITPADAGTYYCVKFRKGSPDDVEFKSGAGTELSVRAKPS[human IgG1 Fc not printed]
For B1, the binding result is given as “binds”.
